Assay [1] addresses T1, UPF2 (mouse (endogenous in round spermatids)) (UniProt A2AT37).
T1 sequence: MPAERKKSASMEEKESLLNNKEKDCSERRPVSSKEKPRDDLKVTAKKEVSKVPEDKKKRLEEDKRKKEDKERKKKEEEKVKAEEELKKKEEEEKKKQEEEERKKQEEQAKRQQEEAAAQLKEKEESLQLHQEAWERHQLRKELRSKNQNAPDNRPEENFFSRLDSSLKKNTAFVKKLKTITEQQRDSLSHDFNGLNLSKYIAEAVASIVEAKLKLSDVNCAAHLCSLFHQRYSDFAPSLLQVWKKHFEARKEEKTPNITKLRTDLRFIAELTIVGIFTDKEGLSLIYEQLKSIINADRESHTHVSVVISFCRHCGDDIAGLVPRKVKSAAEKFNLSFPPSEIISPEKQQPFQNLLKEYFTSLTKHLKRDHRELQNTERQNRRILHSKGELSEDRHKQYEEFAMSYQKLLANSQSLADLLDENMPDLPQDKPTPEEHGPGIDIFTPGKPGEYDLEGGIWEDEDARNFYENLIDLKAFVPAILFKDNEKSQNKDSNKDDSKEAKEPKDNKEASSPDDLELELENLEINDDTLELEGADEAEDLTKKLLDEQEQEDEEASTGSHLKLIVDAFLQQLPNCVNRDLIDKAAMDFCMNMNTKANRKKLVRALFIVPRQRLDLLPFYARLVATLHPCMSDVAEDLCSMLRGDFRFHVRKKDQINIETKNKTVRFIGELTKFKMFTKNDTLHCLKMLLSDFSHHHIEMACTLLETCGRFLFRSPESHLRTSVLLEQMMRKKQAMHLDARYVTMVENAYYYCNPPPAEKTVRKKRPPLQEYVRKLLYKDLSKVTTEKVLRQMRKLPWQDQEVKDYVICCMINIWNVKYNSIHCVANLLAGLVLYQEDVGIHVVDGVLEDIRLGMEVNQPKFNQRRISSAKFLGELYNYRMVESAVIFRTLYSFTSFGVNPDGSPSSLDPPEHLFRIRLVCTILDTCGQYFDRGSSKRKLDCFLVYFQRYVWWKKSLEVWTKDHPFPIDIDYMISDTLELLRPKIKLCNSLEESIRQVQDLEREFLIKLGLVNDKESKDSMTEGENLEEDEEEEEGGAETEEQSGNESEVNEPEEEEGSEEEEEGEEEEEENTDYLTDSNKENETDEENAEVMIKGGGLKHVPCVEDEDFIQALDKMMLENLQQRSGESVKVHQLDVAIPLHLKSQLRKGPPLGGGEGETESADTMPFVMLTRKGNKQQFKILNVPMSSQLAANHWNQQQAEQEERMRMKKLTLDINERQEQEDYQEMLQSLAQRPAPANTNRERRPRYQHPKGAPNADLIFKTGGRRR
Briefly: co-IP; as a1, lysate of round spermatids from Tdrd6^-/- mice (no TDRD6).

Amino acid sequences for entries named in this document (tags omitted).
UniProt P61407: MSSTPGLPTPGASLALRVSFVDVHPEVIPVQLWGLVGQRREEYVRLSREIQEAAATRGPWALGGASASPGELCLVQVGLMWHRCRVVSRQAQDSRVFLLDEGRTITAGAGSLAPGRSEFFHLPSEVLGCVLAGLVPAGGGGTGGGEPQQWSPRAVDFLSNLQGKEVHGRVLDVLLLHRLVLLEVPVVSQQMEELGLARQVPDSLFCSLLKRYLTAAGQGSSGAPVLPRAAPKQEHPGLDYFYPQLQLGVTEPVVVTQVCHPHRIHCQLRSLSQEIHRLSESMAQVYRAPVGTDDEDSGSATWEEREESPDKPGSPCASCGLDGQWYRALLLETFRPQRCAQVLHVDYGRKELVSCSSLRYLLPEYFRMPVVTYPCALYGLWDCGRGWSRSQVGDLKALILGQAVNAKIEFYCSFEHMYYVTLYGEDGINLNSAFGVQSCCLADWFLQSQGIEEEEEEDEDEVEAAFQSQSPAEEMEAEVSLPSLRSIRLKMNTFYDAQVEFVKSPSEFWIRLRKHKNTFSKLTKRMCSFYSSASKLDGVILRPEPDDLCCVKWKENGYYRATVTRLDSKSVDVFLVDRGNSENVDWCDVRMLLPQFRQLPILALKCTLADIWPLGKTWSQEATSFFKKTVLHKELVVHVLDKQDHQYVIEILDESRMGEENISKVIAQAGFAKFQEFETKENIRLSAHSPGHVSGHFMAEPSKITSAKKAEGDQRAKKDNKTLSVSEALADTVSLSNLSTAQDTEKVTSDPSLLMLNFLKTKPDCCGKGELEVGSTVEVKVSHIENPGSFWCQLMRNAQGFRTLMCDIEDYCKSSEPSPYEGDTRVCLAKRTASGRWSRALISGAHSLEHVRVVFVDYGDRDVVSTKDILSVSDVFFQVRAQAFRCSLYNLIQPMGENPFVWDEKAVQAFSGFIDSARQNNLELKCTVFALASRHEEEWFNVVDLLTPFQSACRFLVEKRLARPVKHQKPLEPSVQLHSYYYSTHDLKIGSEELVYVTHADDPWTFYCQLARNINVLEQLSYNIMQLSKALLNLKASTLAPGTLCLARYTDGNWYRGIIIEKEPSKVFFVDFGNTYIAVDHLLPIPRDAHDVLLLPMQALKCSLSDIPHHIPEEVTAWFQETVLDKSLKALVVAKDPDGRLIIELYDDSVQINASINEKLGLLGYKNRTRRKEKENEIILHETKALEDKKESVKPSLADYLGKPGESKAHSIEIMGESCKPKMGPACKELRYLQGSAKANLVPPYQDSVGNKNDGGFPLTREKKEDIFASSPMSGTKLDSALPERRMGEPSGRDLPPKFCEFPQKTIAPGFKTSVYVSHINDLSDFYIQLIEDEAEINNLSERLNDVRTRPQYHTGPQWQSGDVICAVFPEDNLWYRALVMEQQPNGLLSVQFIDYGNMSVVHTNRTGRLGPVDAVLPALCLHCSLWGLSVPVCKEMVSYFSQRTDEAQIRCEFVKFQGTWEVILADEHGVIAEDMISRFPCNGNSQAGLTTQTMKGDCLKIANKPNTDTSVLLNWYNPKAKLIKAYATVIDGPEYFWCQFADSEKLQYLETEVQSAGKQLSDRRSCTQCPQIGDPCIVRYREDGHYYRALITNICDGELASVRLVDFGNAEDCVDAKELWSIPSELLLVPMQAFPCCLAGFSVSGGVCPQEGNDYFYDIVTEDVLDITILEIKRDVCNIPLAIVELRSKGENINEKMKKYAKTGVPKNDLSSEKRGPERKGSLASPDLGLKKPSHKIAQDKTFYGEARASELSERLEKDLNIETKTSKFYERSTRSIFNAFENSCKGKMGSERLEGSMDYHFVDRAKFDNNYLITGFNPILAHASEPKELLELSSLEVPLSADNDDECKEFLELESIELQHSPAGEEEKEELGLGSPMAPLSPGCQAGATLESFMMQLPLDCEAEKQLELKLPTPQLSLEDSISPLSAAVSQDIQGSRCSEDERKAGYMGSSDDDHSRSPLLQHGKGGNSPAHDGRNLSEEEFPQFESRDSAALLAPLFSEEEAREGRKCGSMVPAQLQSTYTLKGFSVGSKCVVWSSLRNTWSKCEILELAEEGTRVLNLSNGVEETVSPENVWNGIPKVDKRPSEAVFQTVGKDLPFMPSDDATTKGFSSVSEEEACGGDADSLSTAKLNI
UniProt Q9EPU0: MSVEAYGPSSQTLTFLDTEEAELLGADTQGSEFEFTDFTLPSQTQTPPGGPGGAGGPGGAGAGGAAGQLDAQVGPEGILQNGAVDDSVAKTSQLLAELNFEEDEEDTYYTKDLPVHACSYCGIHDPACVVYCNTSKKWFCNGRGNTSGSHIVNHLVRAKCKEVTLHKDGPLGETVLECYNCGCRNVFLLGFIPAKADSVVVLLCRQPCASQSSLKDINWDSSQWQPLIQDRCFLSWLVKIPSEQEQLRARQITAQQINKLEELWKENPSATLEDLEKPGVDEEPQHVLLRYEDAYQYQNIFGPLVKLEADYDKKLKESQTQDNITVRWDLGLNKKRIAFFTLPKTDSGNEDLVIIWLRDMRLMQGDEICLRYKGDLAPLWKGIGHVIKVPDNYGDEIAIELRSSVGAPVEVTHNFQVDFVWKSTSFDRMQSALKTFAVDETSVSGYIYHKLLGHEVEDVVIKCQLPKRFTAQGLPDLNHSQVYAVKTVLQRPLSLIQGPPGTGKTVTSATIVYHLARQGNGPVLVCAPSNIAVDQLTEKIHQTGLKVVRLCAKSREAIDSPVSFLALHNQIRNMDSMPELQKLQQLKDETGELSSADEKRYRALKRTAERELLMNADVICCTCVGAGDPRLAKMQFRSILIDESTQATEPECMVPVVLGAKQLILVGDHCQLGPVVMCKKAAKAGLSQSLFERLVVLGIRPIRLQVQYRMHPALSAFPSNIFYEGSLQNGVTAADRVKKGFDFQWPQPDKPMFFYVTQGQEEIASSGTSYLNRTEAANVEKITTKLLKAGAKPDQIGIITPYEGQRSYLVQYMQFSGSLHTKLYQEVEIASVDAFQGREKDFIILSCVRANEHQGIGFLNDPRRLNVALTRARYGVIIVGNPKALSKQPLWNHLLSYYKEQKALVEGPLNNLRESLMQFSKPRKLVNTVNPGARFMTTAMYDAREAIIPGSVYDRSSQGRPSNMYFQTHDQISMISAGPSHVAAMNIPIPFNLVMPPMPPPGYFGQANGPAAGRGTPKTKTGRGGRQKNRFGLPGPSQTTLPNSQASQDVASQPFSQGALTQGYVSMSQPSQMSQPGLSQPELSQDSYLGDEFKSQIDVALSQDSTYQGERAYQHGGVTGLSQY

In assay [2] the target is Tudor-domain containing protein 6 (TDRD6) (mouse (endogenous in round spermatids)) (UniProt P61407). Briefly: co-IP; lysate (RIPA, diluted in IP buffer: 50 mM Tris-HCl pH 7.4, 150 mM NaCl, 0.25% Triton-X100, 1 mM EDTA) of round spermatids fixed in 1% PFA, from Tdrd6^+/- mice (Tdrd6^-/- in parallel); antibodies to MVH, TDRD6, UPF1 or UPF2 coupled to Dynabeads; with or without RNAse A; immunoblot.

The target in assay [3] is T2, MVH(DDX4) (mouse (endogenous in round spermatids)) (UniProt Q61496).
T2 sequence: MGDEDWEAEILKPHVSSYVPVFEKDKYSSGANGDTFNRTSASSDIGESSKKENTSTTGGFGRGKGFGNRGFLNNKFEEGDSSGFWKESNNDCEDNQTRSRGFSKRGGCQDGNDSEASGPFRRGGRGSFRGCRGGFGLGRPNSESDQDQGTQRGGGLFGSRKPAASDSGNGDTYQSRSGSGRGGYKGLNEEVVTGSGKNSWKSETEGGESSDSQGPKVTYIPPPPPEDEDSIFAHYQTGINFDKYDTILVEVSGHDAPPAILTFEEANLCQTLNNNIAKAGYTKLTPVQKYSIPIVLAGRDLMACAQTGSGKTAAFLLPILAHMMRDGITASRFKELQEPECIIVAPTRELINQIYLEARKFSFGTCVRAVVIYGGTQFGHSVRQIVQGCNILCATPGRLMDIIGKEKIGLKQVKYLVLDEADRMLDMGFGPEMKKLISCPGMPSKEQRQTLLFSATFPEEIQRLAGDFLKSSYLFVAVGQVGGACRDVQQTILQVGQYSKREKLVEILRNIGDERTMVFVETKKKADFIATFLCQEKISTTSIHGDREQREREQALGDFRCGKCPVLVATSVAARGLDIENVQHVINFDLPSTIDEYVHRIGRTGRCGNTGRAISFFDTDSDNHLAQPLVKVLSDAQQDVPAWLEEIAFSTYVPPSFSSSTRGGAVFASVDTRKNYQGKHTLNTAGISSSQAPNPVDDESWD
The description is as above.

Assay [4] deals with UPF1 (mouse (endogenous in round spermatids)) (UniProt Q9EPU0). Described as above.
Assay [5] concerns the target T1, UPF2 (mouse (endogenous in round spermatids)). The description is as above.
Assay [6] has as its target UPF1 (mouse (endogenous in round spermatids)) (UniProt Q9EPU0). Briefly: co-IP; as a1, lysate of round spermatids from Tdrd6^-/- mice (no TDRD6).
For assay [7] the target is unchanged. Described as above. The source holds these as a separate data set.

No constants are given. Whether binding was seen depends on the method and setting. Binding seen in cells or lysates may run through a third protein. Some results given as binding are weak or reduced against the parent protein; the word gives no strength.

Here are results for 4 molecules from paper PMC4858158.

With UPF1 (from UniProt Q9EPU0 1-1124), the binding result is listed as “binds weakly” in assay [1] and “binds” in assay [2].
Consider “Tudor-domain containing protein 6 (TDRD6) (from UniProt P61407 1-2134)”, for which the binding entry in assay [3], in assay [4] and in assay [5] was “binds” throughout.

B1: MVH(DDX4) (protein, UniProt Q61496 1-702)
chain: T2 sequence
With B1, the binding entry in assay [2] and in assay [5] was “binds” in each case.

B2: UPF2 (protein, UniProt A2AT37 1-1269)
chain: T1 sequence
For the molecule B2, the binding result is “binds weakly” in assay [6], “no binding (condition: Tdrd6^-/- spermatids (no TDRD6))” in assay [7], “binds” in assay [3] and “binds” in assay [2].
